# Measured values: ChEMBL document CHEMBL5606458, “ASAP - ZIKV NS2B-NS3 protease fluorescence single point” (2024)
# In all, about 2,700 compounds went through this assay and about 160 (5.9%) showed an effect of 50% or more. This is one part of the list.
# Biological target: Nonstructural protein 3 (Zika virus) (UniProt A0A024AXB9)
# [1] = PRVABC59, Concentration 50.0 uM, Number of replicates 1.0
# [2] = PRVABC59, Concentration 15.0 uM, Number of replicates 1.0
# Sequence of UniProt A0A024AXB9 (A0A024AXB9 as listed by the source): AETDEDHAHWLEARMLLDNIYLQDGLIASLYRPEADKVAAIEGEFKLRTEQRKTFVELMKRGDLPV
structure (smiles),measurement,setting,value
COc1ccc(C)cc1NC(=O)CNC(=O)C1CCN(c2ccc(C=O)cc2)CC1,inhibition,[1],16.9%
COc1cc(CS(=O)(=O)C2CCOCC2)nc(N2CCNCC2)n1,inhibition,"PRVABC59, Concentration 49.5 uM, Number of replicates 2.0, Standard deviation 5.067066171415302 %",2.9%
same,inhibition,"PRVABC59, Concentration 99.01 uM, Number of replicates 2.0, Standard deviation 0.4888272833711116 %",0.761%
same,inhibition,"PRVABC59, Concentration 198.0 uM, Number of replicates 2.0, Standard deviation 0.3613898384306013 %",1.52%
C[C@@H](NC(=O)c1cc(Cl)ccc1NS(=O)(=O)c1ccc(Oc2ccccc2Cl)cc1)c1ccc2ccccc2c1,inhibition,[2],29.4%
N#Cc1ccc(NC(=O)c2cc(Cl)ccc2NS(=O)(=O)c2ccc(Oc3ccccc3Cl)cc2)c(I)c1,inhibition,[2],22%
O=Cc1ccc(N2CCC(C(=O)N3CCn4c(nnc4C(F)(F)F)C3)CC2)cc1,inhibition,[1],23.9%
CC(C)N(Cc1cnn(C)c1)C(=O)c1cc(Cl)ccc1NS(=O)(=O)c1ccc(Oc2ccccc2Cl)cc1,inhibition,[2],21.9%
CN1C(=O)c2ccc(NC(=O)c3cc(Cl)ccc3NS(=O)(=O)c3ccc(Oc4ccccc4Cl)cc3)cc2C1=O,inhibition,[2],29.1%
O=Cc1ccc(N2CCC(C(=O)Nc3nc4[nH]cnc4c(=O)[nH]3)CC2)cc1,inhibition,[1],21.6%
Cc1ccc(C[C@H]2CCCN(C(=O)C3CCN(c4ccc(C=O)cc4)CC3)C2)cc1,inhibition,[1],17.5%
CC(C)(CO)NC(=O)c1cc(Cl)cc(NC(=O)c2c[nH]c(C(=O)N3CCCC3)c2)c1,inhibition,"PRVABC59, Concentration 49.5 uM, Number of replicates 2.0, Standard deviation 0.597244234900292 %",1%
same,inhibition,"PRVABC59, Concentration 99.01 uM, Number of replicates 2.0, Standard deviation 0.5630073383305285 %",0.27%
same,inhibition,"PRVABC59, Concentration 198.0 uM, Number of replicates 2.0, Standard deviation 0.35948783545100166 %",-1.43%
O=Cc1ccc(N2CCC(C(=O)N3CCN(C(=O)Cc4ccccc4)CC3)CC2)cc1,inhibition,[1],26.3%
O=C(Nc1cnc(Br)cn1)c1cc(Cl)ccc1NS(=O)(=O)c1ccc(Oc2ccccc2Cl)cc1,inhibition,[2],22.6%
COc1ccccc1C[C@H](C)N(C)C(=O)c1cc(Cl)ccc1NS(=O)(=O)c1ccc(Oc2ccccc2Cl)cc1,inhibition,[2],22.2%
c1ccc2c([C@H]3CCN(Cc4cnc5ccccn45)C3)c[nH]c2c1,inhibition,"PRVABC59, Concentration 49.5 uM, Number of replicates 2.0, Standard deviation 1.722881570826631 %",7.68%
same,inhibition,"PRVABC59, Concentration 99.01 uM, Number of replicates 2.0, Standard deviation 0.2228084717158711 %",10.5%
same,inhibition,"PRVABC59, Concentration 198.0 uM, Number of replicates 2.0, Standard deviation 0.8886437101413989 %",14.8%
COc1cccc(CCNC(=O)C2CCN(c3ccc(C=O)cc3)CC2)c1,inhibition,[1],1.02%
Cc1cccc(OC2CN(C(=O)C3CCN(c4ccc(C=O)cc4)CC3)C2)c1,inhibition,[1],29.4%
CC(C)CN1CC[C@H](CNC(=O)c2cc(Cl)ccc2NS(=O)(=O)c2ccc(Oc3ccccc3Cl)cc2)C1,inhibition,[2],15.7%
O=Cc1ccc(N2CCC(C(=O)NCCNC(=O)c3ccccc3Cl)CC2)cc1,inhibition,[1],20.1%
Cc1nn([C@@H](C)c2nnnn2C2CC2)cc1C1CCNCC1,inhibition,"PRVABC59, Concentration 49.5 uM, Number of replicates 2.0, Standard deviation 2.3033064314790743 %",-1.29%
same,inhibition,"PRVABC59, Concentration 99.01 uM, Number of replicates 2.0, Standard deviation 2.6844291293545366 %",-0.376%
same,inhibition,"PRVABC59, Concentration 198.0 uM, Number of replicates 2.0, Standard deviation 0.3562668047004051 %",-3.04%
CN1CCN(c2ccc(NC(=O)c3cc(Cl)ccc3NS(=O)(=O)c3ccc(Oc4ccccc4Cl)cc3)cc2F)CC1,inhibition,[2],35.5%
Cc1ccc(Cl)cc1N1CCN(C(=O)c2cc(Cl)ccc2NS(=O)(=O)c2ccc(Oc3ccccc3Cl)cc2)CC1,inhibition,[2],12.4%
O=C(c1cc(Cl)ccc1NS(=O)(=O)c1ccc(Oc2ccccc2Cl)cc1)N1CC(Oc2ccc(Cl)cc2)C1,inhibition,[2],4.12%
O=C(NCCOCc1ccccc1)c1cc(Cl)ccc1NS(=O)(=O)c1ccc(Oc2ccccc2Cl)cc1,inhibition,[2],31%
CCCCCC(=O)N[C@H](C(=O)NCc1cccc(CN)c1)C1CCOCC1,inhibition,"PRVABC59, Concentration 49.5 uM, Number of replicates 2.0, Standard deviation 0.5056486622284423 %",-0.377%
same,inhibition,"PRVABC59, Concentration 99.01 uM, Number of replicates 2.0, Standard deviation 0.25282436140726855 %",-0.843%
same,inhibition,"PRVABC59, Concentration 198.0 uM, Number of replicates 2.0, Standard deviation 0.047404414981536996 %",2.4%
Cc1cc(F)cc(Br)c1NC(=O)c1cc(Cl)ccc1NS(=O)(=O)c1ccc(Oc2ccccc2Cl)cc1,inhibition,[2],23.2%
COc1ccc(CN(C)C(=O)C2CCN(c3ccc(C=O)cc3)CC2)cc1O,inhibition,[1],21.5%
CCc1ccc(CN(CC(C)C)C(=O)C2CCN(c3ccc(C=O)cc3)CC2)cc1,inhibition,[1],24.3%
O=Cc1ccc(N2CCC(C(=O)NCC3CCC(C(F)(F)F)CC3)CC2)cc1 (configuration not stated),inhibition,[1],26%
O=C(Nc1cncc(Br)c1)c1cc(Cl)ccc1NS(=O)(=O)c1ccc(Oc2ccccc2Cl)cc1,inhibition,[2],24.9%
O=C(c1cc(Cl)ccc1NS(=O)(=O)c1ccc(Oc2ccccc2Cl)cc1)N1CC[C@@]2(O)CCCC[C@H]2C1,inhibition,[2],4.56%
CC1(C)C[C@@](C)(CNC(=O)c2cnc[nH]2)CN1C(=O)c1ccc2[nH]nnc2c1,inhibition,"PRVABC59, Concentration 49.5 uM, Number of replicates 2.0, Standard deviation 0.9249152326521356 %",-0.603%
same,inhibition,"PRVABC59, Concentration 99.01 uM, Number of replicates 2.0, Standard deviation 0.34716713151950906 %",-1.69%
same,inhibition,"PRVABC59, Concentration 198.0 uM, Number of replicates 2.0, Standard deviation 1.5233898947453204 %",-1.29%
O=C(Nc1ccc(-c2ccccc2)cc1)c1cc(Cl)ccc1NS(=O)(=O)c1ccc(Oc2ccccc2Cl)cc1,inhibition,[2],26.5%
NCc1cccc(NC(=O)[C@H]2CCN(C(=O)OCc3ccccc3)C2)c1,inhibition,"PRVABC59, Concentration 49.5 uM, Number of replicates 2.0, Standard deviation 1.014906480267062 %",2.12%
same,inhibition,"PRVABC59, Concentration 99.01 uM, Number of replicates 2.0, Standard deviation 0.22285769923493182 %",5.37%
same,inhibition,"PRVABC59, Concentration 198.0 uM, Number of replicates 2.0, Standard deviation 1.2136714393129233 %",9.25%
O=Cc1ccc(N2CCC(C(=O)N(Cc3ccncc3)C[C@H]3CCCO3)CC2)cc1,inhibition,[1],23.5%
COc1cc(Cc2cccc(OC)c2F)nc(N2CCNCC2)n1,inhibition,"PRVABC59, Concentration 49.5 uM, Number of replicates 2.0, Standard deviation 2.6153211736588906 %",2.32%
same,inhibition,"PRVABC59, Concentration 99.01 uM, Number of replicates 2.0, Standard deviation 4.59725938145552 %",6.62%
same,inhibition,"PRVABC59, Concentration 198.0 uM, Number of replicates 2.0, Standard deviation 0.3899203888867778 %",8.41%
Cc1ccc(OC2CCN(C(=O)c3cc(Cl)ccc3NS(=O)(=O)c3ccc(Oc4ccccc4Cl)cc3)CC2)cc1,inhibition,[2],5.2%
Cc1nn(Cc2nnc(C(C)C)o2)cc1C1CCNCC1,inhibition,"PRVABC59, Concentration 49.5 uM, Number of replicates 2.0, Standard deviation 0.5353450551005249 %",-1.98%
same,inhibition,"PRVABC59, Concentration 99.01 uM, Number of replicates 2.0, Standard deviation 0.17229496801338245 %",-2.26%
same,inhibition,"PRVABC59, Concentration 198.0 uM, Number of replicates 2.0, Standard deviation 0.7076400231139074 %",-2.46%
CN(Cc1nc2ccccc2[nH]1)C(=O)c1cc2c(ccn2C)[nH]1,inhibition,"PRVABC59, Concentration 49.5 uM, Number of replicates 2.0, Standard deviation 5.172537563995753 %",-3.17%
same,inhibition,"PRVABC59, Concentration 99.01 uM, Number of replicates 2.0, Standard deviation 6.695691457462837 %",-1.36%
same,inhibition,"PRVABC59, Concentration 198.0 uM, Number of replicates 2.0, Standard deviation 6.467604851614249 %",0.123%
O=Cc1ccc(N2CCC(C(=O)Nc3cnc(Br)cn3)CC2)cc1,inhibition,[1],18.7%
CN(C)C[C@H](O)CN1CCN(C(=O)C2CCN(c3ccc(C=O)cc3)CC2)CC1,inhibition,[1],19.1%
NC(=O)[C@H](Cc1ccc(O)cc1)NC(=O)C1CCN(c2ccc(C=O)cc2)CC1,inhibition,[1],27%
OB(O)c1cccc(-c2noc(Cn3cnc4c3CCCC4)n2)c1,inhibition,"PRVABC59, Concentration 49.5 uM, Number of replicates 2.0, Standard deviation 0.8580649914349869 %",-2.62%
same,inhibition,"PRVABC59, Concentration 99.01 uM, Number of replicates 2.0, Standard deviation 0.7538714070076892 %",-1.76%
same,inhibition,"PRVABC59, Concentration 198.0 uM, Number of replicates 2.0, Standard deviation 0.6108605013448731 %",0.25%
O=Cc1ccc(N2CCC(C(=O)Nc3cccc(C(F)(F)F)c3F)CC2)cc1,inhibition,[1],22.2%
CCN(CCNC(=O)c1cc(Cl)ccc1NS(=O)(=O)c1ccc(Oc2ccccc2Cl)cc1)c1cccc(C)c1,inhibition,[2],15.1%
O=Cc1ccc(N2CCC(C(=O)NCCc3c(F)cccc3Cl)CC2)cc1,inhibition,[1],16.4%
